Reference: paper PMC5862874
Results are given in words; binding and its absence hold for the method and conditions named. For part of these data: Binding seen in cells or lysates may run through a third protein. Some results given as binding are weak or reduced against the parent protein; the word gives no strength. For part of these data: Where a sequence is shown, tags or fusion partners need not be part of it.

Columns and labels:
[1] = target: DJ-1 (wild type), yeast two-hybrid fusion (human) (UniProt Q99497); assay: two-hybrid; screens of human substantia nigra and human frontal cortex cDNA libraries with pGLex-DJ-1 as bait
[2] = target: DJ-1 E163K, yeast two-hybrid fusion (human) (UniProt Q99497); assay: two-hybrid; S. cerevisiae L40; bait pGLex-DJ-1 (LexA DNA-binding domain, wt or mutant) with a GAL4 AD prey plasmid; colonies on medium lacking leucine and tryptophan tested for beta-galactosidase activity by LacZ freeze-fracture filter assay
[3] = target: DJ-1 (wild type), yeast two-hybrid fusion (human) (UniProt Q99497); assay: as above
[4] = target: DJ-1 L166P, yeast two-hybrid fusion (human) (UniProt Q99497); assay: as above
[5] = target: DJ-1 M26I, yeast two-hybrid fusion (human) (UniProt Q99497); assay: as above
[6] = target: DJ-1 K130R, yeast two-hybrid fusion (human) (UniProt Q99497); assay: as above
[7] = target: DJ-1 A104T, yeast two-hybrid fusion (human) (UniProt Q99497); assay: as above
[8] = target: DJ-1 R98Q, yeast two-hybrid fusion (human) (UniProt Q99497); assay: as above
[9] = target: DJ-1 D149A, yeast two-hybrid fusion (human) (UniProt Q99497); assay: as above
[10] = target: DJ-1 E64D, yeast two-hybrid fusion (human) (UniProt Q99497); assay: as above
[11] = target: T1, FLAG-DJ-1 (wild type) (human), Q99497; assay: co-IP; HEK293T cells co-transfected with FLAG-DJ-1 (wt or mutant) and myc-DJBP; 1% Nonidet P-40 lysates incubated with anti-FLAG agarose 2 h at 4°C, eluted with FLAG peptide, Western blot (anti-FLAG, anti-c-myc, anti-DJ-1); settings: remark: other sources report otherwise
T1 chain: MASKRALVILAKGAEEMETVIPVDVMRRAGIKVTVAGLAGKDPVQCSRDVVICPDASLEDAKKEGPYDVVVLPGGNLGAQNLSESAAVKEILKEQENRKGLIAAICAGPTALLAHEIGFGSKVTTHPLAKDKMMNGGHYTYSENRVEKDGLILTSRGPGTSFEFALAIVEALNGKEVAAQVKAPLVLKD

[12] = target: T2, FLAG-DJ-1 L166P (human), Q99497; assay: as above; settings: remark: other sources report otherwise
T2 chain: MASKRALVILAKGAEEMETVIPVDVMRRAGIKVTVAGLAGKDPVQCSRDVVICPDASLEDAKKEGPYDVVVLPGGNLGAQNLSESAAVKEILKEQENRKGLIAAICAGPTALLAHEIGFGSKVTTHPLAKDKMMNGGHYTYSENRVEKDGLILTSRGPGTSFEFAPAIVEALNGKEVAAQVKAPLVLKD

[13] = target: T3, DJ-1 (wild type), yeast two-hybrid fusion (human), Q99497; assay: two-hybrid; S. cerevisiae L40; bait pGLex-DJ-1 (LexA DNA-binding domain, wt or mutant) with a GAL4 AD prey plasmid; colonies on medium lacking leucine and tryptophan tested for beta-galactosidase activity by LacZ freeze-fracture filter assay; settings: remark: other sources report otherwise
T3 chain: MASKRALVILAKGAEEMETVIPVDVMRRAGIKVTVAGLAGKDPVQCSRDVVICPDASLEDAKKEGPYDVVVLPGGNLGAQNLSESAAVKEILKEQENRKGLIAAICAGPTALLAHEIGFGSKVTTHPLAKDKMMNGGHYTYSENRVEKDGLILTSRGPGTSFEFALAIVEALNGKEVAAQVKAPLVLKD

[14] = target: T4, DJ-1 L166P, yeast two-hybrid fusion (human), Q99497; assay: as above; settings: remark: other sources report otherwise
T4 chain: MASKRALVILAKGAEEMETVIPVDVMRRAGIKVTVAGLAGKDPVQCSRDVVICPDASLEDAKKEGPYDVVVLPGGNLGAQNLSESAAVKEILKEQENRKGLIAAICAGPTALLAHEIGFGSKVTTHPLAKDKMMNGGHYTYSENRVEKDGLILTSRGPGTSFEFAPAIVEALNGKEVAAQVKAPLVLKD

B1: SIMC1 (SUMO interacting motifs containing 1) amino acids 1-245, yeast two-hybrid prey (domain or fragment, UniProt Q8NDZ2 1-245)
chain: MAPASASGEDLRKLPTMAEVNGEQDFIDLTRETRPRTKDRSGLYVIDLTRAEGENRPIATLDLTLEPVTPSQKEPTSLQTCASLSGKAVMEGHVDRSSQPTARRIINSDPVDLDLVEENTFVGPPPATSISGGSVYPTEPNCSSATFTGNLSFLASLQLSSDVSSLSPTSNNSRSSSSSSNQKAPLPCPQQDVSRPPQALPCPLRPLPCPPRASPCPPRASSCPPRALSCPSQTMQCQLPALTHP
[1]
  binding: binds
[2]
  binding: binds
[3]
  binding: binds
[4]
  binding: no binding
[5]
  binding: binds
[6]
  binding: binds
[7]
  binding: binds
[8]
  binding: binds
[9]
  binding: binds
[10]
  binding: binds

B2: homeodomain-interacting protein kinase 2 (HIPK2 isoform 2) amino acids 818-884, yeast two-hybrid prey (domain or fragment, UniProt Q9H2X6-3 818-884)
chain: VHSSPACSTSVTCGWGDVASSTTRERQRQTIVIPDTPSPTVSVITISSDTDEEEEQKHAPTSTVSKQ
[1]
  binding: binds
[2]
  binding: binds
[3]
  binding: binds
[4]
  binding: no binding
[5]
  binding: binds
[6]
  binding: binds
[7]
  binding: binds
[8]
  binding: binds
[9]
  binding: binds
[10]
  binding: binds

B3: DJ-1 co-purified with FLAG-DJ-1 from HEK293T lysates, Q99497 1-189 (protein)
chain: MASKRALVILAKGAEEMETVIPVDVMRRAGIKVTVAGLAGKDPVQCSRDVVICPDASLEDAKKEGPYDVVVLPGGNLGAQNLSESAAVKEILKEQENRKGLIAAICAGPTALLAHEIGFGSKVTTHPLAKDKMMNGGHYTYSENRVEKDGLILTSRGPGTSFEFALAIVEALNGKEVAAQVKAPLVLKD
[11]
  binding: binds
[12]
  binding: binds

B4: DJ-1 L166P, yeast two-hybrid fusion, Q99497 1-189 (protein)
chain: MASKRALVILAKGAEEMETVIPVDVMRRAGIKVTVAGLAGKDPVQCSRDVVICPDASLEDAKKEGPYDVVVLPGGNLGAQNLSESAAVKEILKEQENRKGLIAAICAGPTALLAHEIGFGSKVTTHPLAKDKMMNGGHYTYSENRVEKDGLILTSRGPGTSFEFAPAIVEALNGKEVAAQVKAPLVLKD
[13]
  binding: binds
[14]
  binding: no binding
